Sequences and labels used below:
B1: LINE1-mini (parent)
chain: GGCAGAGCUCAACACAGCGUGGCAAAGUGGCUGUGGCUAGACUGCC

The source gives no read counts; variants with many changes may rest on few reads.

The variants in the data set derive from B1. Put plainly: self-cleavage, relative activity (ratio to wild type); higher = more cleavage; in vitro, sequencing; the parent is a self-cleaving ribozyme.
Regarding GGCAGAGCUCAAAACAGAGUGGCAGAGUGGCUGUGCCUAGACUGCC, the self-cleavage is 0.02.
With GGCAGAGCUCAAAACAGCGUGGCAAAGUGGUUGUGGCUGGACUGCC the figure was 0.
In the case of GGCAGAGGUAAACAAAGCGUGGCAAAGUGGCUGUGGCUAGACUGCC it was 0.05; in that of GGAAGAGCUCAUCCCAGCGUGGCAAAGUGGCUGUGGCUAGACUGCC, 0.01; in that of GGCAGAGCUCAACACAGCGUGGCAAAGUGGCAGUGGCUGGAAUGAC, 0.03.
Regarding GCCAGAGUUCAACACAGCGUCGCAAAAUGGCUGUGGCUAAACUGCC, the self-cleavage is 0.06.
In the case of GGCAGAGCUCACCACAGCGUGACAAAGUGGCUGUGGAUAGACUGCC, the self-cleavage came to 0.02.
On to GGCAGAGCUCAACACAGCGUGGCAAAGUGGCUGAGGAUAGACUGAC, for which the self-cleavage worked out at 0.01.
For GGCAGAGCUCAACAAAGAGUUGCGAAGUGGCUGUGGCUAGACUGCC, the self-cleavage worked out at 0.06.
In the case of GGGAUAGCUCAACACAGCGUGUCAAAUUGGGUGUUGCGAGACUGCC it was 0.02.
With GACAGAGCACAAAACAGCGUGGCAAAGCGGCUGUGGCAAGACUGCC the figure was 0.07.
With GGAAGAGCUCAACACGGAGAGGCCAAGUGGCUGUGGCUAGACUGCC the figure was 0.1; with GGCAGAGCGCAAGACAGCGUGGCAAAGUGGCUGUGGCUAGUAUACC, 0.07.
On to GGCAGAGCUCAACACAGCGAGGCAAAGUGGCUGUGACUGGACUGCC, for which the self-cleavage was found to be 0.03.
GGCAUAGCUCAACACAGCGCGGCAAAGAGGCUGUGGCUAUACGGCC: the self-cleavage was 0.
With GGCAGAGCUCAACACAGCGUGGCAAAAUGGUUUUGGCUAGACUGCC the figure was 0.01; with CGCUGAGCUCGACACAGCGUGGCAAAGUGCCUGUGGCUAGACUGCC, 0.01.
With GGCAGAGCUCAACACAGCAUGGCAAUGUGGCUGUGGCUAGACUGAC the figure was 0.49.
With GGCAGAGCUGAACAAAGCGUGGCAAAGUGGCUGUUGCUAGACUGCC the figure was 0.02.
For the variant GGUAGAGCUCAACCCAGCGUGGCAAAGUGGCUGUGGCUAGACUACG, the self-cleavage was 0.05.
With GUCAGAGCUGAACACACCGUGGCAAAGUGUCUGUGGCUAUACUGCC the figure was 0; with GGCAGAGCUCAAUACAGCGUGGCAAAGUAGCGGUGGCUAGACUGCC, 0; with GGCAGAGCUCAACACAACGUGGCAAAGUGGCUGUGGCUAGAGUGCU, 0.03.
On to GGCAGACCUCAAGAGAGCGUGGUAAAGUGGCUGUGCCUAGACUGCC, for which the self-cleavage amounted to 0.04.
For the variant GGCAGAGCUCAACACUGCGUAGCAAAGAGGCUGUGGAUAGACUGCC, the self-cleavage worked out at 0.02.
On to GGCAGAGCUACACACACCGUGGCAAAGUGGCUGUGGCUAGACUGCC, for which the self-cleavage amounted to 0.
In the case of GACAGAGCUCAACACAGCGCGGCAAAGUGGCUGUGGAUAGACUGCC it was 0.11.
On to GGCAGAGCUCAAUAGAGCGUGCCAAAGGUGCUGUGGCUAGACUGGC, for which the self-cleavage turned out to be 0.02.
With GGCAUAGCUCAACACAGAGUGGCAAAGUGGCUGGGGCUAGCCUGCC the figure was 0.
With GGCAGAGCUCAACGCAGCGUGGCAAAGUGGCUGUGGCCAGACUGAC the figure was 0.27; with GGCAGAGCUCAACAGAGCGUGGCAAAGGUGCUGUGGCUAGACUGUC, 0.01; with GGCGGAGCUCAACACAGGGUGGCAAAGUGGCUGUGGCUAGACUACC, 0.01.
In the case of GGCAGAGCUCAAAACAGCGUUGCAACGUGGCUGUUGCUAGACUGCC it was 0.18; in that of CGCAGAGCUCAACACAGCGUGGCAAAGUGGCUGUGGCUAGGCUGCA, 0.05.
GGCAGAGGUCAACACAGCGUGGCAAAGUGGCUGUGGCUAGACUGGA: the self-cleavage was determined as 0.01.
In the case of GGCAGAGCUCAACUCAGCGUGGCAACGUGGCUGUGGCGAGACAGCC it was 0.09; in that of GGCAGAGCUCAACACGGCGUGGCAAAGUGGCUGUUGCUACACUGCC, 0.04; in that of GGCCGAGCUCAACACAGCGUGCCAAACGGGCUGUGGCUAGACUGCC, 0.18.
In the case of GGCAGAGCUCAACACAGCGUGGCGAAGUGGCUAUGGCUAGACUUCC it was 0.13; in that of GGCAGAGGUCAUCACAGCGUGGCAAAGUGGCUGUAGCUAGACUGCC, 0.3.
In the case of GGCAGAGCUCAACGCAGCAUGGCAAAGGGGCUAUGGCUAGAGUGCC it was 0.03.
Regarding GGUAGAGCUCAACACAGCGUGGCAACGUGGCUGUGGCUAGCCUGCC, the self-cleavage was found to be 0.04.
For GGCAGAGCUCAACACAGGAUGGCAAAGUCGCUGUGGCUAGACUGCC, the self-cleavage is 0.85.
In the case of GGCAGAGCUGCACACAGCGUGGCUAAGAGGCUGUGGCUAGACUGCU, the self-cleavage is 0.01.
With GGCAGAGCUCAAAAGAGCGUUGCAAAGUGGCUGUGGCUAGACUUCC the figure was 0.01.
With GGCAGAGCUUUACACAGCGUGGCCAUGUGGCUGUGGCUAGACUGCU the figure was 0.01; with GGCAGAGCUCAAGACAGCGUGGCAACGUGGCUGUAGCUAGACUACC, 0.02.
In the case of GGCAGAGCUCAACACAUCGUGGCAAAGUGGCUGGGGUUAGACUGCC it was 0.04; in that of GGCAGAGCUCAACACAUCGUGGCAAAGUUGCUGCGGCUAGACUGCC, 0.05; in that of GGCAGUGCUCAACACAGCGCGGCAAAGUGGCUGUGGCGCGACUGCC, 0.01.
Consider GGCAGAGCUCAACACAGCGUGGCAAAGUGGCUGUGGCUAGGCAUCC, for which the self-cleavage is 0.07.
As to GGCAGCGCUCUACACAGCGUGGUAAAGUGGCUGUGGCUAGACUGCC, the self-cleavage turned out to be 0.01.
In the case of GGCAGAGAUCAACCCAGCGUGGCAAAGUGGCUUUGGCUAGACUGCC, the self-cleavage was 0.15.
With GGCAGAGCUCAGCACAGCGUGGCAAAGUGGCUGUGACGAGACUGCC the figure was 0.01.
Turning to GGCAGAGCUCAACACAGCGUGGCAAGGUGCCUGAGGCUAGACUGCC, the self-cleavage is 0.03.
With GGCAGAGCUCAAAACAGCGUGGCUAAGACGCUGUGGCUAGUCUCCC the figure was 0.02.

Source of the values: the RNAGym collection of RNA variant scans (doi:10.7554/elife.90254).
